Out of some 190,000 compounds screened, about 270 (0.14%) were called active. This list was built around the results that the source calls inconclusive (neither active nor inactive); the mix of calls is not that of the screen.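 The calls were made as follows: active = GTP binding activity at least 20% away from the 100% baseline, either lowered as inhibitor or raised as activator; inconclusive = flagged as likely green fluorescent, judged across all proteins in the well; inactive = the rest.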
These compounds were tested against GTPase HRas (Homo sapiens) (UniProt P01112) (assay: HRas wt fluorescent GTP binding changes, either direction – biochemical, wildtype, bead-based flow cytometry, multiplex, primary screen (AID 759;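 also: 0% = unlabeled GTP competition control and 100% = no-compound control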)). Conditions: GST-Ras wt beads, Bodipy-FL-GTP binding, at 10 µM, actives lie on both sides.
Chain of UniProt P01112 (P01112 whole entry, looked up): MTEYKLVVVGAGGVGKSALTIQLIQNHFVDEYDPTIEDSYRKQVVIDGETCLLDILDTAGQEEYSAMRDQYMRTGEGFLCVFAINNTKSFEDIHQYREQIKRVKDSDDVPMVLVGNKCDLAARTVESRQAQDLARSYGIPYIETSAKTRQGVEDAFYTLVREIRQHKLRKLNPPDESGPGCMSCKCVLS

SMILES	GTP binding activity
S=C1NCCOCCOCCNC(=S)N2CCOCCOCCN1CCOCCOCC2	inactive: 100%
CSc1nc(O)cc(=O)n1-c1ccc(F)cc1	inactive: 96%
CCCCCCNc1cc2n(c(=O)n1)CCc1cc(OC)c(OC)cc1-2	inconclusive: 74%
CSCCC(=O)Nc1cc(S(=O)(=O)N2CCOCC2)ccc1N1CCN(C)CC1	inconclusive: 92%
Cc1cc(Cl)ccc1OCC(=O)OCC(=O)Nc1ccc(F)c([N+](=O)[O-])c1	active: 74%
COc1ccc(-c2c(O)c(C#N)c(-c3ccccc3)n(-c3ccc(OC)cc3)c2=O)cc1	inconclusive: 91%
O=S(=O)(/N=C(\Nc1ccc(F)cc1)C(F)(F)F)c1ccccc1	inconclusive: 102%
CCC(=O)OCCNc1nc(-c2ccccc2)nc2ccccc12	inactive: 98%
CCN(CC)C(=O)Cn1cc(C(=O)C(=O)NCc2ccco2)c2ccccc21	inactive: 96%
O=Cc1cn(CC(O)CN2CCCCC2)c2ccccc12 (centres undefined)	inconclusive: 95%
CNC(=O)CSc1nc2[nH]ncc2c(=O)[nH]1	inactive: 98%
COc1ccccc1NC(=O)CSc1ccc2nnc(-c3cccnc3)n2n1	inconclusive: 74%
COc1cc(C(=O)OCC(=O)Nc2sccc2C(N)=O)cc(OC)c1OC	inconclusive: 93%
Cc1cc(OCC(=O)Nc2ccncc2)ccc1Br	inconclusive: 91%
COCCN(C(=O)CCc1nnc(CCc2c[nH]c3ccccc23)o1)C(C)C	inactive: 97%
COC(=O)c1c(NC(=O)CSc2nnnn2-c2ccccc2)sc2c1CCC(C)C2 (centres undefined)	inconclusive: 91%
O=C(Oc1ccc(C(=S)N2CCOCC2)cc1Br)c1ccccc1F	inconclusive: 93%
c1ccc(COc2cccc(CNCc3cccs3)c2)cc1	inactive: 100%
CC1(C(=O)NCc2ccc(Cl)c(Cl)c2)Oc2cccnc2NC1=O (centres undefined)	inactive: 98%
COc1cccc(CN2CCNC(=O)C2CC(=O)NCc2cc(C(C)C)no2)c1 (centres undefined)	inconclusive: 92%
Cc1[nH]c2ccccc2c1[C@H]1[C@@H](CC#N)C1(C)C	inconclusive: 105%
COc1ccccc1NC(=O)CN(C)S(=O)(=O)c1cc(C)ccc1OC	inconclusive: 103%
CCN(CC)S(=O)(=O)c1cccc(-c2n[nH]c(=S)n2/N=C/c2ccc(C(=O)OC)cc2)c1	inconclusive: 84%
COc1cc(O)cc2occ(-c3ccc(O)cc3)c(=O)c12	inconclusive: 91%

SMILES	GTP binding activity
Cn1c(=N)c(S(=O)(=O)c2ccc(F)cc2)cc2c(=O)n3ccccc3nc21	inconclusive: 79%
O=C(NC1CCCC1)C1C2C=CC(C2)C1C(=O)N1CCOCC1 (centres undefined)	inactive: 98%
O=C(O)c1ccc(/C=N/Nc2ccc(C(F)(F)F)cn2)cc1	inconclusive: 91%
O=C1CCCN1C(=O)CCC(=O)N1CCCC1=O	inconclusive: 107%
CCOc1ccc(CCNS(=O)(=O)c2cccc3nsnc23)cc1OCC	inconclusive: 103%
Cn1c(SCC(N)=O)nnc1C1CCN(C(=O)NCc2ccccc2)CC1	inconclusive: 103%
CSc1ccccc1C(=O)NCc1ccc(C)cc1	inconclusive: 93%
Cc1sc2nc(-c3ccncc3)[nH]c(=O)c2c1-c1ccccc1	inconclusive: 90%
O=C(c1ccccc1NS(=O)(=O)c1cccc([N+](=O)[O-])c1)N1CCOCC1	inconclusive: 106%
CC1Sc2ccc(C(=O)O)cc2NC1=O (centres undefined)	inconclusive: 96%
COC(=O)c1ccc(C2C(Oc3ccccc3)C(=O)N2CCc2ccc(F)cc2)cc1 (centres undefined)	inconclusive: 102%
O=C(OCC(=O)N1CCN(C(=O)c2ccco2)CC1)c1cc(=O)c2ccccc2o1	inconclusive: 101%
CN=c1scc(-c2cccs2)n1/N=C/c1ccc(O)c(O)c1O	inconclusive: 96%
CCOC(=O)Cc1cc(=O)n2[nH]c(C)cc2n1	inconclusive: 105%
O=C(COc1cc(Cl)ccc1Cl)Nc1nnc(CC(=O)N2CCOCC2)s1	active: 70%
CC(=O)OC(C)C[N+](C)(C)C (centres undefined)	inconclusive: 99%
O=C(Cc1ccc(Cl)cc1)NNC(=O)c1cnccn1	inconclusive: 102%
CC(COc1ccccc1)N1CCC(CO)(Cc2ccccc2)CC1 (centres undefined)	inactive: 100%
Cc1nccn1-c1cc(C(C)(C)C)nc2c(-c3ccccc3)cnn12	inactive: 99%
O=C1NC(Cc2ccccc2)C(=O)N1Cc1cc([N+](=O)[O-])cc2c1OCOC2 (centres undefined)	inconclusive: 95%
C/C(CCC(=O)OC[C@H]1O[C@H](C#Cc2ccccc2)C=C[C@@H]1Oc1ccc(C)cc1)=N\O[C@@H](C)CN1CCCCc2nc(C)c(C)cc21	inactive: 101%
CCOC(=O)C1(CCc2ccccc2)CCN(C(=O)CN2C(=O)CSC2=O)CC1	inactive: 96%
O=C(O)c1ccccc1C(=O)N1CCN(c2ccccc2)CC1	inconclusive: 101%
CCOC(=O)C1(CCCc2ccccc2)CCN(CC(O)CO)CC1 (centres undefined)	inconclusive: 95%

SMILES	GTP binding activity
COc1ccc(-c2cc(C(=O)OCC(=O)c3ccc(C)c([N+](=O)[O-])c3)c3ccccc3n2)cc1	inconclusive: 104%
COc1ccc(OC)c(C(C(=O)NCc2ccco2)N(C(=O)Cn2nnc3ccccc32)C2CC2)c1 (centres undefined)	active: 121% [activator]
Cc1ccc(CNC(=O)CN2C(C)CCCC2C)cc1 (centres undefined)	inactive: 92%
Cc1cnc(NC(=O)CSc2nnc(C)s2)s1	inconclusive: 105%
CC(=O)Oc1ccccc1C1C[C@]2(C)CC(=O)NC2N1C(C)=O (some centres undefined)	inactive: 95%
Cc1[nH]n2c(=O)c3c(nc2c1-c1ccccc1)CCC3	inconclusive: 90%
COc1cccc(C(=O)C2CCCN(C(=O)CCC3=NNC(=O)CC3)C2)c1 (centres undefined)	inconclusive: 94%
O=C(N/N=C/c1ccc(Cl)cc1Cl)C(=O)NC1CC1	inactive: 100%
CCC(=O)Nc1cccc(NC(=S)NC(=O)c2ccccc2C)c1	inactive: 97%
CCn1ncc(Br)c1C(=O)Nc1ccccc1OC	inconclusive: 96%
O=C(NCC1CCCO1)C1CCN(C2CCN(C3CCCCCC3)CC2)CC1 (centres undefined)	inactive: 100%
O=C(CSc1ccc2nnc(-c3cccc(F)c3)n2n1)NCC1CCCO1 (centres undefined)	inconclusive: 108%
O=C(Cc1ccccc1)NCC(=O)OCC(=O)c1cccc([N+](=O)[O-])c1	inconclusive: 96%
N#C/C(=C/c1ccc(O)c([N+](=O)[O-])c1)C(=O)Nc1ccccc1	inactive: 86%
CC1CCc2onc(C(=O)NCc3ccco3)c2C1 (centres undefined)	inconclusive: 107%
O=Cc1cn(CC(=O)N2CCc3ccccc32)c2ccccc12	inactive: 100%
Cc1ccc(-c2ccc(/C=N/NC(=O)CN3CCCC3)o2)cc1Cl	inconclusive: 121%
O=C(Nc1cccc(O)c1)c1cccc(S(=O)(=O)N2CCCC2)c1	inconclusive: 85%
COC(=O)c1scc(C)c1N/N=C(\C)c1cc(F)c(Cl)cc1F	inactive: 104%
Cc1nn(CCCC(=O)O)c(C)c1[N+](=O)[O-]	inactive: 95%
COc1ccccc1NC(=O)c1ccccc1C(=O)O	inconclusive: 96%
Cc1ccc(-c2nnc(Nc3ccccc3)o2)cc1	inconclusive: 107%
NC(=O)C1CCN(C(=S)NCCc2ccccc2)CC1	inactive: 98%
CCCNC(=O)c1cc2nc(-c3ccccc3)cc(C(F)(F)F)n2n1	inconclusive: 105%

SMILES	GTP binding activity
Cc1ccc(-c2nnc(SCC(=O)N/N=C/c3ccc(C)s3)n2-c2ccccc2)cc1	inconclusive: 96%
CC(CNC(=O)CC(C)(C)C)NC(=O)CC(C)(C)C (centres undefined)	inconclusive: 98%
NS(=O)(=O)c1cccnc1Nc1c(Cl)cccc1Cl	inconclusive: 144%
Cc1c(C2OC(=O)C3(CCCCC3)C(=O)C2(C)C)c(=O)n(-c2ccccc2)n1C (centres undefined)	inconclusive: 106%
COc1ccccc1-c1ccc(SCC(=O)NCc2ccc3c(c2)OCO3)nn1	inconclusive: 89%
Nc1nc(N)c2sc3nc(C(F)(F)F)cc(C(F)(F)F)c3c2n1	inconclusive: 83%
COc1ccc(-c2cc(-c3ccccc3)nc3ncnn23)cc1	inconclusive: 93%
CC1=NC(=O)C(N=Nc2cccc(C(=O)O)c2)N1c1ccccc1 (centres undefined)	inconclusive: 93%
CCOc1ccc(S(=O)(=O)N(C)c2ccc(OCC(=O)Nc3nc(-c4cc(OC)ccc4OC)cs3)cc2)cc1	inactive: 95%
O=C1NC(Cc2ccccc2)C(=O)N1CC(=O)N1CCCc2ccccc21 (centres undefined)	inactive: 98%
O=C(COC(=O)c1cccnc1Nc1cccc(C(F)(F)F)c1)NCc1ccc2c(c1)OCO2	inconclusive: 88%
Cc1nnc(-c2cnn(C)c2N)n1Cc1ccccc1	inconclusive: 106%
Cc1ccc(-c2cc(C(=O)N3CCN(c4ncccn4)CC3)c3cc(Br)ccc3n2)o1	inactive: 96%
O=C(c1ccc(Cl)cc1)N1CCCCC(Cl)C1=O (centres undefined)	inactive: 96%
Cc1ccc(OCC(=O)N/N=C\c2ccncc2)c(C)c1	inactive: 98%
COc1ccc(C(=O)Cn2c(C(=O)/C=C/c3ccccc3)nc3ccccc32)cc1	inactive: 99%
Cn1ncc(C(N)=O)c1NC(=S)NC(=O)c1ccc(Br)o1	inconclusive: 84%
COc1ccc(CCNc2cc(=O)[nH]c(N)n2)cc1	inconclusive: 69%
O=C(CCCN1C(=O)c2ccccc2C1=O)Oc1ccc(F)cc1	inactive: 105%
Cc1ccc(Cl)c(NC(=O)CN2CCNC(=O)C2)c1Cl	inactive: 95%
Cc1cc2nc3c(=O)n(C4CCCCC4)c(=O)[nH]c3nc2cc1N	active: 76%
CC1CC(C)CN(CCCNC(=O)Cc2c(C(=O)O)[nH]c3ccccc23)C1 (centres undefined)	inconclusive: 103%

— PubChem BioAssay AID759 (NMMLSC, 2007)
